About 4,200 (1.3%) of roughly 330,000 compounds were called active. Inconclusive results, whose numbers are uncertain, are shown with a selection of clear calls. Calls follow the shape of the dose curve; as a rule, active = well fitted activation curve with a large enough effect; inconclusive = small, poorly fitted or top-dose-only effect; inactive = no such curve, though single readings can be large or run the other way. Potencies of inconclusive entries are doubtful fits and often do not repeat.
Test: qHTS screen for small molecules that induce genotoxicity in human embryonic kidney (HEK293T) cells expressing luciferase-tagged ELG1; also: nearly all actives have a fitted effect of over 60% in size; as to activity change, positive = activation: % of control where 0% means no effect
Conditions: HEK293T ELG1-luciferase reporter, luminescence, 16 h; series mostly up to 46 µM; activity change, positive = activation: at the top concentration
Procedure, shortened: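 16 hr compound incubation (37 °C, 5% CO2) of HEK293T cells carrying luciferase-tagged ELG1; luciferase then measured by ONE-Glo luminescence after 30 min at RT.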
With `Cn1c(=O)[nH]c(=O)c2c1nc(Br)n2CCCO` the “activity change, positive = activation” value was inactive: 1.74%.
With `N/C(=N\OC(=O)c1ccc(Br)o1)c1ccccn1` the Potency was inconclusive: 2.06 µM [activator, partial curve].
With `O=C(c1ccc2ccccc2c1)N1CCCC1` the “activity change, positive = activation” value was inactive: 8.73%.
For `COc1cccc2cc(C(=O)NC(C)c3ccccc3)c(=O)oc12` (stereo not drawn), the “activity change, positive = activation” value was inactive: 11.3%.
In the case of `C/C(=N\Nc1cccc(C(=O)O)c1)c1ccc(Cl)s1`, the Potency is reported as inconclusive: 10.3 µM [activator, partial curve, poor fit].
With `CCOc1ccc(N/C(C)=C/C(=O)c2ccc3c(c2)OCCO3)cc1` the Potency was inconclusive: 4.61 µM [activator, partial curve, poor fit].
With `Cc1ccc(Cn2ccc(NC(=O)c3cc(C)on3)n2)cc1` the Potency was inconclusive: 18.4 µM [activator, partial curve].
With `C=CCNC(=O)C1CC(=O)N(c2ccc(OCc3ccc(F)cc3)cc2)C1` (stereo not drawn) the Potency was active: 18.3 µM.
In the case of `COc1cccc(COC(=O)c2cc(=O)[nH]c3ccc(S(=O)(=O)N4CCOCC4)cc23)c1OC`, the “activity change, positive = activation” value is reported as inactive: -1.06%.
In the case of `C/C(=N\NC(=S)Nc1ccccc1C)c1ccc(O)cc1`, the “activity change, positive = activation” value is reported as inactive: 3.24%.
For `Cc1ccc(-c2cc(C(=O)N/N=C/c3c(C)nn(C)c3C)c3ccccc3n2)cc1C`, the Potency was inconclusive: 4.61 µM [activator, full curve, poor fit].
In the case of `CC1SCC(NC(=O)c2ccccc2Cl)CS1` (stereo not drawn), the Potency is reported as inconclusive: 20.6 µM [activator, partial curve, poor fit].
With `COc1cc(C(C)=O)ccc1OCC(=O)N(CCC1=CCCCC1)c1c(N)n(Cc2ccccc2)c(=O)[nH]c1=O` the Potency was inconclusive: 0.73 µM [activator, partial curve, poor fit].
With `Cc1cccc(-c2noc(CSc3ccccc3)n2)c1` the Potency was inconclusive: 13 µM [activator, partial curve].
For `CC(=O)c1ccc(OCc2cc(C(=O)N3CCCCC3c3cccnc3)no2)cc1` (stereo not drawn), the Potency was inconclusive: 32.6 µM [activator, partial curve, poor fit].
With `COc1ccc2cc(-c3ccn[nH]3)ccc2c1` the Potency was active: 5.8 µM.
With `Cc1cc(C(=O)O/N=C(\N)c2ccncc2)ccc1[N+](=O)[O-]` the Potency was inconclusive: 18.3 µM [activator, partial curve].
In the case of `COc1cc(/C=C2/C(=O)NN(c3ccc(Cl)cc3)C2=O)cc(Br)c1O`, the “activity change, positive = activation” value is reported as inactive: -4.38%.
In the case of `Cc1cc(C)cc(NC(=O)Nc2ccc(N3CCCCC3)cc2)c1`, the Potency is reported as inconclusive: 18.3 µM [activator, partial curve, poor fit].
With `COc1ccc2cc(-c3ccsc3)ncc2c1` the Potency was inconclusive: 4.11 µM [activator, full curve].
In the case of `Cc1ccc(Nc2nnc(SCC(=O)NCC3CCCO3)s2)cc1` (stereo not drawn), the “activity change, positive = activation” value is reported as inactive: 2.58%.
With `O=C(COC(=O)C1CCC1)NCc1ccccc1Cl` the “activity change, positive = activation” value was inactive: 0.12%.
In the case of `Cc1ccc(C(CC(=O)N2CCCC2)c2ccccc2)c(O)c1` (stereo not drawn), the “activity change, positive = activation” value is reported as inactive: -0.557%.
With `O=C(CCCc1ccccc1)NC12CC3CC(CC(C3)C1)C2` the Potency was inconclusive: 8.2 µM [activator, partial curve].
With `Cc1ccc(CNC(=O)Nc2ccccc2)cc1` the Potency was active: 9.2 µM.
With `Cc1ccccc1N(C(=O)CCC(=O)Nc1ccccn1)C(C(=O)NC(C)C)c1ccc(O)cc1` (stereo not drawn) the “activity change, positive = activation” value was inactive: -0.248%.
In the case of `CC1CCCCC1NC(=O)CN(C)S(=O)(=O)c1cccc2cccnc12` (stereo not drawn), the “activity change, positive = activation” value is reported as inactive: -4.33%.
In the case of `COCC(=O)Nc1nnc(-c2cccs2)s1`, the Potency is reported as inconclusive: 20.6 µM [activator, partial curve].
With `COCCN(CCOC)C(=O)COC(=O)c1cc([N+](=O)[O-])ccc1Cl` the “activity change, positive = activation” value was inactive: -0.0041%.
For `C(=N\Nc1nc(Nc2ccccc2)nc(N2CCCCC2)n1)/c1ccco1`, the “activity change, positive = activation” value was inactive: -11%.
For `O=C(Nc1ccccc1Cl)C(=O)c1cn(CC(=O)N2CCOCC2)c2ccccc12`, the Potency was inconclusive: 7.3 µM [activator, partial curve, poor fit].
For `O=C(Nc1cccc2ccccc12)c1onc2c1CCCC2`, the Potency was active: 16.4 µM.
For `Cc1cc(NCCCn2ccnc2)n2ncc(-c3ccccc3)c2n1`, the Potency was active: 0.291 µM.
For `O=C(Nc1ccc(Cl)cc1Cl)c1ccc2c(=O)n3c(nc2c1)CCC3`, the Potency was inconclusive: 3.66 µM [activator, partial curve, poor fit].
In the case of `CN(c1ccccc1)c1nc(N)c([N+](=O)[O-])c(N2CCCC2)n1`, the Potency is reported as inconclusive: 18.3 µM [activator, partial curve, poor fit].
With `COc1cccc2[nH]c3c(N4CCCC(C)C4)ncnc3c12` (stereo not drawn) the “activity change, positive = activation” value was inactive: -1.85%.
For `Cc1ccc(NC(=O)NCc2cccnc2)cc1`, the Potency was inconclusive: 23.1 µM [activator, partial curve, poor fit].
For `CC(C)(C)c1ccc(NC(=O)CC2(C(F)(F)F)OCCO2)cc1`, the Potency was inconclusive: 20.6 µM [activator, partial curve].

— PubChem BioAssay AID504466 (National Center for Advancing Translational Sciences (NCATS), 2011)
Potency is read from the fitted curve at half-maximal effect; tags tell the direction and shape of the fitted curve.
